Source: PMC10625615
Results are given in words; binding and its absence hold for the method and conditions named. In cells and extracts the contact can be indirect. Some binding calls cover weakened binding; strength is not graded here. Each block holds one substance with its values, some of them ahead of it.

The chains behind the UniProt entries cited, without tags or fusion partners. Where a name states a change or a piece, a line headed by the entry shows the natural chain unless it says otherwise. A line that says so, or that is headed by a name, gives the form on record, which may keep a tag or linker. Residues count along the entry.
UniProt A2A935: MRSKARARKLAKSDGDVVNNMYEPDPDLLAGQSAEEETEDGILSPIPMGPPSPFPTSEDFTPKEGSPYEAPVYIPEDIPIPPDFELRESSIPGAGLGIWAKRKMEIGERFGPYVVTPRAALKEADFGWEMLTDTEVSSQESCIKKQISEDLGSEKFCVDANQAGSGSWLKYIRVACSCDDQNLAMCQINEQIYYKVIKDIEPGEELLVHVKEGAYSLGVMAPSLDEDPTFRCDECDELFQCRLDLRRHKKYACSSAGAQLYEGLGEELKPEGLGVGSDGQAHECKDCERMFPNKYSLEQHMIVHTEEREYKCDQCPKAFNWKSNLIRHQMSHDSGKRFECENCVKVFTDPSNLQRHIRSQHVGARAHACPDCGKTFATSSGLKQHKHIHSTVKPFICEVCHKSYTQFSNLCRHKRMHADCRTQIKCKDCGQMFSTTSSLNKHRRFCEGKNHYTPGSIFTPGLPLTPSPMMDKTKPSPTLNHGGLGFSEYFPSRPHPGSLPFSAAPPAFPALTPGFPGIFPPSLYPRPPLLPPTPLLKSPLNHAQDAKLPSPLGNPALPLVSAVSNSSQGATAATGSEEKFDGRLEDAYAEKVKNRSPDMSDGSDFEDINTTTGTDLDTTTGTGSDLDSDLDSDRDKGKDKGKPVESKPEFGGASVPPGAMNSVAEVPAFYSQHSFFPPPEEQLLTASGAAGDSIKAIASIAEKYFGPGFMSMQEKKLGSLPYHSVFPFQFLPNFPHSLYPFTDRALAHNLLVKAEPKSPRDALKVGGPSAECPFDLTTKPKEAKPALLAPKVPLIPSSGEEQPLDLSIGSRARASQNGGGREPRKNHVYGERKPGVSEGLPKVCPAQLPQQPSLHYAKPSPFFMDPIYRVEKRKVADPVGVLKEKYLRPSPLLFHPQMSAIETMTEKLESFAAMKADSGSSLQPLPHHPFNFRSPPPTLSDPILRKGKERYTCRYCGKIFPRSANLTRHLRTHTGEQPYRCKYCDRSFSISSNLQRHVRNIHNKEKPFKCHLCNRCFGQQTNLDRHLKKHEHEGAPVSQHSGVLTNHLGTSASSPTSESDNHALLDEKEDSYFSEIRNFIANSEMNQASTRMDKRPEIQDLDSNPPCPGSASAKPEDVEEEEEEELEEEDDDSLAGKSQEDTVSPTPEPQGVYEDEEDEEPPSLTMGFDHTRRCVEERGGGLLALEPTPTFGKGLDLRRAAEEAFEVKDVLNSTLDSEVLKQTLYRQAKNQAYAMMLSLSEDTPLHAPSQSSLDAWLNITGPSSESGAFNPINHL
PRDM16 5th fragment (F5, amino acid 880-1038), zinc finger-2 domain: residues 880-1038 of A2A935
PRDM16(ΔF5) (A2A935, form named): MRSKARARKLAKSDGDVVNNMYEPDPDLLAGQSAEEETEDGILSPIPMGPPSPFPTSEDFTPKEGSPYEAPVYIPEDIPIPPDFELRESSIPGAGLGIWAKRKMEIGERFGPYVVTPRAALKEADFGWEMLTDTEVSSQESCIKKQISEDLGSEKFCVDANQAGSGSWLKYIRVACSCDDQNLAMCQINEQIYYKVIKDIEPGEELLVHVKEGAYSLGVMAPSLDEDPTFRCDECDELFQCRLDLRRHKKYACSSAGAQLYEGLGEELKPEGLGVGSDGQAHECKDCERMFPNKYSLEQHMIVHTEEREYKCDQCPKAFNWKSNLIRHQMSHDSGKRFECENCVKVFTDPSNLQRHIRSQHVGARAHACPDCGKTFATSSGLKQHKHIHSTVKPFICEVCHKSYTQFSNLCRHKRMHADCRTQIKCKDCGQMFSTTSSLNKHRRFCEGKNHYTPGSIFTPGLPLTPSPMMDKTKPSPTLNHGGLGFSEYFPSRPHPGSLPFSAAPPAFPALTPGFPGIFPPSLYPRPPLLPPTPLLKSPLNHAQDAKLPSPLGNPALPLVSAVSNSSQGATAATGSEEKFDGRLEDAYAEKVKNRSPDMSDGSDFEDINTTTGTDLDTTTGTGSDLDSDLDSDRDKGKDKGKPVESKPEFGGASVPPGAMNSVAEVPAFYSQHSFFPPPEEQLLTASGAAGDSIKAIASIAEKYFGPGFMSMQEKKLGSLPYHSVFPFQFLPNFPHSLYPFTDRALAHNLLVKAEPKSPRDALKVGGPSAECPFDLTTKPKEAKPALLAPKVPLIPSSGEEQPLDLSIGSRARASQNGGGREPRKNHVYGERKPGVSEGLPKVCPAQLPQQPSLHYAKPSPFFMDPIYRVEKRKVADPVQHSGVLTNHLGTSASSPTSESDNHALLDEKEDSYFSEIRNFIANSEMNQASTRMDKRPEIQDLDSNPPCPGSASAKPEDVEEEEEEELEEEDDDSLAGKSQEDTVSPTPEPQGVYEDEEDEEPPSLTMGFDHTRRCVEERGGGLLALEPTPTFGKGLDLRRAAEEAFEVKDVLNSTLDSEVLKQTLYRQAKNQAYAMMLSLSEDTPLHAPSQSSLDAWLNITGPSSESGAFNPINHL
UniProt P46937: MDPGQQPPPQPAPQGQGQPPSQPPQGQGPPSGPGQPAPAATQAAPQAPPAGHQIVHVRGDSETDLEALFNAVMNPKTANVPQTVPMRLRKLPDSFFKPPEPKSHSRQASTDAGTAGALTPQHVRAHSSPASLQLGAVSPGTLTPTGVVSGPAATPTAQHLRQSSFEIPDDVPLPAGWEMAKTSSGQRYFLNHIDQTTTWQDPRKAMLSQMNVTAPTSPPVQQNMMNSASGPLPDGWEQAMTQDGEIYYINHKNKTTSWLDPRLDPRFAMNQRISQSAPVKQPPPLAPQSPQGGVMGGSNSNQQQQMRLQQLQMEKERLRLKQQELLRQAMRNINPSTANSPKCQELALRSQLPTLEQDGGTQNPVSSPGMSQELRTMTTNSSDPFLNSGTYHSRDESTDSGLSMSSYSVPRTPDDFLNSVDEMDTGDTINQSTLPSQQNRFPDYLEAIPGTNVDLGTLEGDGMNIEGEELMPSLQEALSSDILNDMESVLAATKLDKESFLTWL
UniProt Q9EPK5: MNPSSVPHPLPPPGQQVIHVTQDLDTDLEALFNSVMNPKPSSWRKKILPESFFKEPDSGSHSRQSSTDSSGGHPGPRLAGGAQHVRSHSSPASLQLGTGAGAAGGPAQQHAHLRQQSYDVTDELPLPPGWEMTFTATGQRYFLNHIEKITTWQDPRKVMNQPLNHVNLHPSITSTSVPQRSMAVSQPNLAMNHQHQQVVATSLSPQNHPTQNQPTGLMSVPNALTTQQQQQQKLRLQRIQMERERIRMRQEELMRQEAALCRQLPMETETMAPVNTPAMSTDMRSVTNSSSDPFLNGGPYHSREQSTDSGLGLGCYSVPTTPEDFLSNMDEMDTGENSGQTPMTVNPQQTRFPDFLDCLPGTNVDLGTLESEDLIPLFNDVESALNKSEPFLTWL
UniProt Q9GZV5: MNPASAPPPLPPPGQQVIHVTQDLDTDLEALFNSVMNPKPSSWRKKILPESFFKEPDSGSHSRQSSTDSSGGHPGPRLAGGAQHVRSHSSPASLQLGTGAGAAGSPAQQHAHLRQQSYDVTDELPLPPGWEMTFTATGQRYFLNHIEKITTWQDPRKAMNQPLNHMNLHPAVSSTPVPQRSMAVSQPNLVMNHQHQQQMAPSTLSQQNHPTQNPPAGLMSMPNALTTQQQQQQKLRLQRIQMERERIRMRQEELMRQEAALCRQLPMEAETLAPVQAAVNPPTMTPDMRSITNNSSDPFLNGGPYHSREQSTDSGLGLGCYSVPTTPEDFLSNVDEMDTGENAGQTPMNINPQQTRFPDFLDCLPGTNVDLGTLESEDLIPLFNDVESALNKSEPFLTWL

Columns and labels:
[1] = biological target: PRDM16 (overexpressed in HEK-293T cells) (UniProt A2A935); assay: co-IP; C/EBPβ and PRDM16 overexpressed in HEK-293T cells without or with co-expressed YAP, TAZ or their mutants (S79A, S51A, 5SA, 4SA); immunoblot
[2] = biological target: PRDM16 (overexpressed in HEK-293T cells) (UniProt A2A935); assay: co-IP; overexpressed PRDM16 and endogenous YAP/TAZ in HEK-293T cells; immunoblot
[3] = biological target: PRDM16 (overexpressed in HEK-293T cells) (UniProt A2A935); assay: co-IP; both proteins overexpressed in HEK-293T cells; lysis buffer 120 mM NaCl, 50 mM Tris-HCl pH 8.0, 10% glycerol, 1% NP-40, 5 mM EDTA; HA-tagged protein on anti-HA magnetic beads, 2 h at 4 °C; immunoblot
[4] = biological target: PRDM16 5th fragment (F5, amino acid 880-1038), zinc finger-2 domain (UniProt A2A935); assay: as above
PRDM16(ΔF5) = PRDM16(ΔF5) (UniProt A2A935); assay: as above
[5] = biological target: PRDM16 (endogenous, mouse) (mouse (endogenous in SVF-derived beige adipocytes, scWAT, BAT)) (UniProt A2A935); assay: co-IP; endogenous proteins in SVF-derived beige adipocytes; lysate with primary antibody overnight at 4 °C, Protein G beads 3 h at 4 °C; immunoblot; for PRDM16 with C/EBPβ cells treated with Veh, NE, FSK or NE + H89 for 30 min

Substance: YAP (S79A) (from UniProt P46938 1-488)
binding [1]: binds

Substance: YAP (overexpressed in HEK-293T cells) (from UniProt P46938 1-488)
binding [3]: binds
binding [4]: binds
binding (PRDM16(ΔF5)): no binding

Substance: YAP (endogenous in HEK-293T cells) (from UniProt P46937 1-504)
binding [2]: binds

Substance: TAZ (endogenous, mouse) (from UniProt Q9EPK5 1-395)
binding [5]: binds

Substance: TAZ (overexpressed in HEK-293T cells) (from UniProt Q9EPK5 1-395)
binding [3]: binds
binding [4]: binds
binding (PRDM16(ΔF5)): no binding

The remaining lines, values ahead:

binding [1]: binds
Substance: TAZ (S51A) (from UniProt Q9EPK5 1-395)

binding [2]: binds
Substance: TAZ (endogenous in HEK-293T cells) (from UniProt Q9GZV5 1-400)

binding [5]: binds
Substance: YAP (endogenous, mouse) (from UniProt P46938 1-488)
